Measurements: article PMC4336329 (PLoS ONE, 2015)
The whole screen tested about 310,000 compounds, of which about 14,000 (4.5%) showed an effect of 50% or more. Effects have a minus sign here. This is one part of the list.

target: human ether-à-go-go-related gene (hERG) potassium channel (human, UniProt Q12809); test: primary screen, population patch clamp on CHO cells stably expressing hERG
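Also: peak tail current of the secondary pulse compared with the same well before compound.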

Sequence of human ether-à-go-go-related gene (hERG) potassium channel (Q12809 whole entry, looked up): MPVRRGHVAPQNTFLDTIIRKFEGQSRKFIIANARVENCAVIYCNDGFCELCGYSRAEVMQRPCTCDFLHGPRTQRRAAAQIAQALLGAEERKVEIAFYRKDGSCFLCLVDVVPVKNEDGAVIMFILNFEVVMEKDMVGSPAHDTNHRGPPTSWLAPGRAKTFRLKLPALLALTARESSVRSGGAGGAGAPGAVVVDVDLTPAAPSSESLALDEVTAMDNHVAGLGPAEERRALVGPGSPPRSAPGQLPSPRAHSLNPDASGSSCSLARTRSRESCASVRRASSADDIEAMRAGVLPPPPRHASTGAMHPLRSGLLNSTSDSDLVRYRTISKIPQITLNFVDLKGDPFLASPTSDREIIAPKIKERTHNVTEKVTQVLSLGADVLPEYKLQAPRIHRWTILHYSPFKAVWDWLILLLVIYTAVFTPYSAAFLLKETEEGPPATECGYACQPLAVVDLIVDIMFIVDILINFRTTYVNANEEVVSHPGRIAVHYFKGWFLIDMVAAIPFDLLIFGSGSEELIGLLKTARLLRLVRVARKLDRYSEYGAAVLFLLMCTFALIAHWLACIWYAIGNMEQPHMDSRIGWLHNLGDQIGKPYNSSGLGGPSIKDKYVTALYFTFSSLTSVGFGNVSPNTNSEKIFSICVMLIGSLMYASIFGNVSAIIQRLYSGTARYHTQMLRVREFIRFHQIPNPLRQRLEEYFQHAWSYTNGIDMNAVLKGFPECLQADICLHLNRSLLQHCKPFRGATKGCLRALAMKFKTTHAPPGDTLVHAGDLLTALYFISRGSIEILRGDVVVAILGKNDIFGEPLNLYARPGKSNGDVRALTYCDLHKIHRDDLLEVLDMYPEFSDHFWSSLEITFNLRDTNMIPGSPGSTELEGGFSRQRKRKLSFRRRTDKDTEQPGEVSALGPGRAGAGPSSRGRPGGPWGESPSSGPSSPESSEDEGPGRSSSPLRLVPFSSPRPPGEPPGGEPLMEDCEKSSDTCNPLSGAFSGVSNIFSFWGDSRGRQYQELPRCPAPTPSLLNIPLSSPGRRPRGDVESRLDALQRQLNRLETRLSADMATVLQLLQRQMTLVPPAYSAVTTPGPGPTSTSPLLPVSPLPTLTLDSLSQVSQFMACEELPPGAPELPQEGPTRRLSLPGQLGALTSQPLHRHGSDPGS

Row | SMILES | hERG current change (%, negative = inhibition) at 10uM [%]
1 | O=C(/C=C/c1ccc(Cl)cc1)NC1CCS(=O)(=O)C1 (stereo not drawn) | -58.7
2 | CN=c1sc2ccccc2n1CC(O)COc1ccccc1 (stereo not drawn) | -57.5
3 | COc1ccc2oc(=O)c(C(=O)NCc3ccccc3)cc2c1 | -0.716
4 | Cc1ccc(-c2noc(CCC(=O)NC3CC3)n2)cc1 | 0.431
5 | CCOC(=O)C1CCN(CCC(=O)Nc2ccc(Br)c(C)c2)CC1 | -62.8
6 | O=C(Nc1cc(C(F)(F)F)ccc1-n1cncn1)C1CC1 | 11.8
7 | O=C(Nc1ccc(S(=O)(=O)Nc2nccs2)cc1)C1CC(=O)N(c2ccccc2)C1 (stereo not drawn) | 19.6
8 | COc1ccc(CC(=O)Nc2ccc(S(=O)(=O)N(C)C)cc2)cc1OC | 10.4
9 | O=C(/C=C/Nc1ccccc1)c1ccc(Oc2ncccn2)cc1 | -1.1
10 | CC(C)(C)n1nnnc1C(c1cccs1)N1CCN(C(=O)c2ccco2)CC1 (stereo not drawn) | -33
11 | COc1ccccc1N1CCN(CC(=O)c2ccc(F)cc2)CC1.Cl | 15.7
12 | O=C(COC(=O)c1cc([N+](=O)[O-])ccc1N1CCOCC1)Nc1c(Cl)cccc1C(F)(F)F | -6.31
13 | Cc1cccc(C2=NOC(=O)/C2=C\c2ccccc2F)c1 | 9.48
14 | COc1ccc(C2CC(=O)Oc3ccc(C(C)(C)C)cc32)cc1 (stereo not drawn) | -0.188
15 | O=C(O)CCCN1C(=O)C2C3C=CC(C2C1=O)C1C(=O)N(CCCC(=O)O)C(=O)C31 (stereo not drawn) | 9.89
16 | CC(C)c1ccc(NC(=O)NC(C)c2ccc3c(c2)OCO3)cc1 (stereo not drawn) | 0.863
17 | OCCn1c(SCCOc2ccccc2)nc2ccccc21 | -21.3
18 | C=CCN1C(=O)C(Cc2ccccc2)S/C1=N/N=C/c1cccs1 (stereo not drawn) | 8.44
19 | O=C(Cn1nnc(-c2ccc3c(c2)OCO3)n1)Nc1ccccc1C(=O)O | 19.3
20 | COc1cc2c(cc1OC)C1(CCCCC1)CN(C)C2.Cl | -7.45
21 | COc1cc(NC(=O)C2CCCO2)c(C(=O)O)cc1OC (stereo not drawn) | 15.8
22 | CC(C)(C)NC(=O)c1ccc(Cn2cc(C(F)(F)F)ccc2=O)cc1 | 10.9
23 | COc1ccc(Cn2c(=O)[nH]c3cc(C(=O)N4CCN(c5ccccc5OC)CC4)ccc3c2=O)cc1 | 6.67
24 | Cc1ccc(-c2nn(CC(=O)NCc3cc(-c4nn(C)c(=O)c5ccccc45)ccc3C)c(=O)c3ccccc23)cc1 | -17
